# The list shows a part of the results.
# B1: PhoQ; a variant is named by its letters at X, in order, P23837 (parent)
# chain: MKKLLRLFFPLSLRVRFLLATAAVVLVLSLAYGMVALIGYSVSFDKTTFRLLRGESNLFYTLAKWENNKLHVELPENIDKQSPTMTLIYDENGQLLWAQRDVPWLMKMIQPDWLKSNGFHEIEADVNDTSLLLSGDHSIQQQLQEVREDDDDAEMTHSVAVNVYPATSRMPKLTIVVVDTIPVELKSSYMVWSWFIYVLSANLLLVIPLLWVAAWWSLRPIEALAKEVRELEEHNRELLNPATTRELTSLVRNLNRLLKSERERYDKYRTTLTDLTHSLKTPLXXLQXXLRSLRSEKMSVSDAEPVMLEQISRISQQIGYYLHRASMRGGTLLSRELHPVAPLLDNLTSALNKVYQRKGVNISLDISPEISFVGEQNDFVEVMGNVLDNACKYCLEFVEISARQTDEHLYIVVEDDGPGIPLSKREVIFDRGQRVDTLRPGQGVGLAVAREITEQYEGKIVAGESMLGGARMEVIFGRQHSAPKDE
# Variants of: B1
# Experiment: enrichment ratio after two sorts for PhoP signalling (ratio (wild type AVST 3.29)); higher = more functional
# Conditions: with PhoP (E. coli)
row,Variant,enrichment ratio
1,GKPY,≤ 0.25
2,STPA,≤ 0.25
3,NEIP,≤ 0.25
4,FEYV,≤ 0.25
5,AGKQ,≤ 0.25
6,TYAL,0.505
7,KAYM,≤ 0.25
8,WILF,≤ 0.25
9,LWQH,≤ 0.25
10,NYHW,≤ 0.25
11,LYFE,≤ 0.25
12,HFEW,≤ 0.25
13,FARI,≤ 0.25
14,LGSN,≤ 0.25
15,ESAK,≤ 0.25
16,FTPT,≤ 0.25
17,EKQH,≤ 0.25
18,TSTF,10
19,TWYC,≤ 0.25
20,KYNY,≤ 0.25
21,MSSQ,6.25
22,QAFG,1.5
23,LDQR,≤ 0.25
24,HKTN,≤ 0.25
25,VWTH,≤ 0.25

row,Variant,enrichment ratio
1,TPPG,≤ 0.25
2,QDMH,≤ 0.25
3,FCFV,≤ 0.25
4,WWFY,≤ 0.25
5,AVFN,≤ 0.25
6,PWAT,≤ 0.25
7,LMRR,≤ 0.25
8,IICC,≤ 0.25
9,QMCS,≤ 0.25
10,ADIA,≤ 0.25
11,MKPC,≤ 0.25
12,GKIC,≤ 0.25
13,QDHD,≤ 0.25
14,VYRN,≤ 0.25
15,NAKW,≤ 0.25
16,AWSK,≤ 0.25
17,IWNH,≤ 0.25
18,VATF,≤ 0.25
19,SNPV,≤ 0.25
20,HASE,≤ 0.25
21,PGQS,≤ 0.25
22,YCTG,≤ 0.25
23,IHNG,≤ 0.25
24,FPVG,≤ 0.25
25,PNVN,≤ 0.25

row,Variant,enrichment ratio
1,QCYI,≤ 0.25
2,DFCA,≤ 0.25
3,MPFL,4.17
4,YCRW,≤ 0.25
5,PRVG,≤ 0.25
6,SNLH,9.39
7,MKQI,≤ 0.25
8,FFKM,≤ 0.25
9,DDMR,≤ 0.25
10,AWIT,≤ 0.25
11,VLVH,≤ 0.25
12,PSMD,≤ 0.25
13,EIDM,≤ 0.25
14,HYLQ,≤ 0.25
15,EIAV,≤ 0.25
16,THIH,≤ 0.25
17,MGFG,3.15
18,MATA,≤ 0.25
19,ETTQ,≤ 0.25
20,ELQY,≤ 0.25
21,NQIN,≤ 0.25
22,EDVI,≤ 0.25
23,DDTF,≤ 0.25
24,ADYM,≤ 0.25
25,KHSW,≤ 0.25

row,Variant,enrichment ratio
1,RLSV,≤ 0.25
2,MRPF,≤ 0.25
3,KEVW,≤ 0.25
4,GQGN,≤ 0.25
5,LQTS,≤ 0.25
6,TTKC,≤ 0.25
7,IQHH,≤ 0.25
8,WENG,≤ 0.25
9,NTLT,≤ 0.25
10,EHFW,≤ 0.25
11,AGTQ,≤ 0.25
12,QRSD,≤ 0.25
13,VISF,≤ 0.25
14,NCKG,≤ 0.25
15,MNYK,≤ 0.25
16,TAER,≤ 0.25
17,SSLK,5.98
18,RKWC,≤ 0.25
19,WQCA,≤ 0.25
20,GGHF,≤ 0.25
21,KMQL,≤ 0.25
22,RSDN,≤ 0.25
23,GIAM,33.4
24,LYFR,0.305
25,TYIV,≤ 0.25

row,Variant,enrichment ratio
1,VHWD,≤ 0.25
2,GEAL,2.19
3,KSSQ,≤ 0.25
4,HSKP,≤ 0.25
5,FWNN,≤ 0.25
6,SYCG,3.73
7,KRFV,≤ 0.25
8,DFRF,≤ 0.25
9,FWRW,≤ 0.25
10,QYPP,≤ 0.25
11,VLGP,≤ 0.25
12,YMHH,≤ 0.25
13,NLFH,≤ 0.25
14,TYTF,≤ 0.25
15,QFYW,≤ 0.25
16,GGAM,18.2
17,QGMC,0.535
18,YFPE,≤ 0.25
19,KCHM,≤ 0.25
20,FREF,≤ 0.25
21,EWSM,≤ 0.25
22,PLRM,≤ 0.25
23,YMTQ,≤ 0.25
24,HMTF,≤ 0.25
25,YTQN,≤ 0.25

row,Variant,enrichment ratio
1,KGAT,0.465
2,PIWD,≤ 0.25
3,DYWK,≤ 0.25
4,RVFC,≤ 0.25
5,MELW,≤ 0.25
6,HGRV,≤ 0.25
7,GNYW,≤ 0.25
8,FIQL,≤ 0.25
9,QTIP,≤ 0.25
10,NKQF,≤ 0.25
11,LDEA,≤ 0.25
12,GHRA,≤ 0.25
13,DNFQ,≤ 0.25
14,KDAW,≤ 0.25
15,MRVP,≤ 0.25
16,PMVL,≤ 0.25
17,SKPS,≤ 0.25
18,IVLI,≤ 0.25
19,RPQH,≤ 0.25
20,KTAR,≤ 0.25
21,RQID,≤ 0.25
22,KGYQ,≤ 0.25
23,IRWE,≤ 0.25
24,PYVS,≤ 0.25
25,YVAC,≤ 0.25

row,Variant,enrichment ratio
1,WQKG,≤ 0.25
2,RPDM,≤ 0.25
3,VQGF,0.296
4,RLVP,≤ 0.25
5,IMHE,≤ 0.25
6,VCHY,≤ 0.25
7,FGQV,≤ 0.25
8,VLAT,≤ 0.25
9,HSWP,≤ 0.25
10,GSPR,≤ 0.25
11,ETHM,≤ 0.25
12,WGYK,≤ 0.25
13,FNAD,≤ 0.25
14,DNQT,≤ 0.25
15,HRHN,≤ 0.25
16,ESMM,≤ 0.25
17,SWGF,≤ 0.25
18,PMCV,≤ 0.25
19,KFAP,≤ 0.25
20,YGMA,≤ 0.25
21,WICP,≤ 0.25
22,NQWL,≤ 0.25
23,EFEM,≤ 0.25
24,EFNE,≤ 0.25
25,DFDA,≤ 0.25

row,Variant,enrichment ratio
1,WEAF,≤ 0.25
2,LSGL,≤ 0.25
3,DFLC,≤ 0.25
4,YGMH,≤ 0.25
5,NLSI,≤ 0.25
6,YNTC,≤ 0.25
7,NLMY,≤ 0.25
8,CMVC,≤ 0.25
9,TEDH,≤ 0.25
10,QKHT,≤ 0.25
11,SHTR,≤ 0.25
12,TTNP,≤ 0.25
13,EERL,≤ 0.25
14,IDTM,≤ 0.25
15,IDVS,≤ 0.25
16,ESNR,≤ 0.25
17,KRAD,≤ 0.25
18,HTRV,≤ 0.25
19,QEHN,5.05
20,GQMR,≤ 0.25
